# Results as given in the supplement of paper PMC5499739.
# In all, about 16,000 sequences were measured (“Z-score”: median about -0.37, highest 2% from about 3.1 on). The list shows a part of the results.
# Tested on: RBM10 RRM1-ZnF-RRM2 (GST-tagged construct)
# Assay: RNAcompete 7-mer binding Z-score; higher = stronger binding preference
# Method: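 RNAcompete: 20 pmol GST-tagged RBM10 RNA-binding constructs were incubated with a designed RNA pool of about 241,000 sequences up to 41 nt (1.5 nmol) on glutathione beads for 30 min at 4 °C and washed. Bound RNAs were identified by microarray hybridisation. Each RNA 7-mer is scored by a one-sided Z-score of its enrichment, computed over probes that contain the 7-mer within longer pool sequences.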
row,Sequence,RNAcompete 7-mer binding Z-score
1,ACGAAAG,0.654
2,CCUCAGC,-0.843
3,CUACGCU,-0.701
4,ACGUCGC,-0.686
5,ACAUGUC,-0.592
6,GGCAGCU,0.108
7,CGCGUAA,-0.22
8,AACGGGG,3.65
9,GUAUUGA,-0.107
10,UUAAACU,-0.555
11,ACUUAAC,-0.788
12,GGUGUCC,0.49
13,AUCUCCU,-0.799
14,CCUGUCG,-0.73
15,UAGUCGC,-0.508
16,CUAGCAG,-0.38
17,CUGGACA,-0.0743
18,CCUGCGA,-0.69
19,UAAGGCA,1.84
20,CAAGGGC,1.45
21,ACUACUG,-0.599
22,GUGGGAC,2.4
23,GGAGGGU,3.8

row,Sequence,RNAcompete 7-mer binding Z-score
1,UACGGCC,-0.562
2,ACUAAUU,-0.694
3,CACGAUA,-0.369
4,CACGCGC,-0.602
5,UGGCCGC,-0.231
6,AAGCGUA,0.385
7,GACGACG,0.275
8,CGCAUAU,-0.388
9,GCUCACA,-0.384
10,CCGUUAA,-0.77
11,CCAUCAC,-0.715
12,ACCCUUG,-0.825
13,GACCAUG,-0.57
14,ACGGCCC,-0.628
15,UAACUAU,-0.599
16,CGUCUAU,-0.661
17,CCCCCUA,-0.5
18,GCUUACG,-0.541
19,CGACGUG,0.25
20,UUAAUUC,-0.694
21,CGCGCUU,-0.821
22,GAGAGGU,2.2
23,GUCUGCA,-0.57

row,Sequence,RNAcompete 7-mer binding Z-score
1,UCCAAGU,-0.42
2,GGAUCCC,-0.0343
3,CAACGAG,0.337
4,AUUAUUC,-0.723
5,UGCGCGC,0.0932
6,GCCUGAG,-0.329
7,AAACACU,-0.621
8,AAACCCU,-0.785
9,AGGCCAU,-0.388
10,AUGUACU,-0.435
11,GGCGUAG,1.86
12,CCGCGAU,-0.624
13,CCUCGUA,-0.723
14,CUAUAGG,0.516
15,ACAAGGU,1.89
16,CGAACUA,-0.584
17,AGUUUAA,-0.49
18,UGGACAC,0.986
19,AGGCUCG,-0.191
20,UAUCAGA,-0.238
21,AAUAAGC,-0.158
22,AAGGUAU,2.03
23,GAGUGUA,1.12

row,Sequence,RNAcompete 7-mer binding Z-score
1,GGCCGGU,0.279
2,AGGGGCU,1.07
3,GCGUCGU,0.213
4,AAGUAAA,0.0568
5,UACAAGU,-0.256
6,UGAUGUA,0.0277
7,AGUGCCG,-0.158
8,ACGUUGA,-0.0197
9,UGUAAAU,-0.246
10,GUCGAAC,-0.173
11,CCUAUAU,-0.799
12,CGGCCCU,-0.715
13,GUUAAGU,-0.0379
14,AGGCUGC,-0.0962
15,UCCCCUA,-0.734
16,AAGUCAA,0.0932
17,UCUCCAA,-0.672
18,CGGACCU,-0.632
19,CUAAAUA,-0.497
20,GUCCGUG,-0.154
21,AGUAGUG,1.35
22,GAGCCAG,0.0277
23,CCUGGUG,-0.26

row,Sequence,RNAcompete 7-mer binding Z-score
1,GCCAGGG,1.75
2,UGGAAAU,1
3,CUCGGCU,-0.785
4,CCGAUAU,-0.643
5,CAUUGCG,-0.519
6,UGUUGCG,-0.22
7,AUUCUUC,-0.836
8,AAAGACU,-0.402
9,GACUGAA,-0.249
10,GAUAGGC,1.35
11,UUCUGGG,0.192
12,CUAGCUA,-0.712
13,CCUCCAA,-0.857
14,UGGCGUG,1.19
15,UGUAACC,-0.435
16,CGCCAUU,-0.941
17,CCUACCA,-0.694
18,CGAAAUA,-0.34
19,CUUACGA,-0.752
20,ACUGCCU,-0.978
21,GCUACAG,-0.216
22,CGAACUC,-0.719
23,GGUAGUU,0.847

row,Sequence,RNAcompete 7-mer binding Z-score
1,CUGCUCC,-0.897
2,AAAAUUG,0.0714
3,GUCUCGG,0.0859
4,AGUACUC,-0.639
5,CGCCGUG,-0.315
6,UCGCCAU,-0.774
7,GGGAGGG,4.06
8,UCGGCGA,0.385
9,AAUCAUC,-0.694
10,AGCAGAA,0.701
11,AACCAAC,-0.621
12,CUGACGG,0.243
13,AAGCAUU,-0.508
14,CUCAUCU,-0.85
15,UCUCACC,-0.85
16,AAUUUUA,-0.723
17,GGAGAUC,0.993
18,GUCUUAG,-0.46
19,CACCGCU,-0.788
20,UUUUCUG,-0.795
21,UAGGAUG,2.27
22,UAAAACU,-0.533
23,UCUUAUU,-0.803

row,Sequence,RNAcompete 7-mer binding Z-score
1,CGUCAUU,-0.646
2,AAGUUCA,-0.519
3,CGGGGAC,1.71
4,CAAGGCG,1.49
5,CCGGGAU,0.661
6,CCAUAGC,-0.737
7,CAUGAGC,-0.337
8,CGAGGUU,0.727
9,CGUAAGG,0.844
10,GCGUCAU,-0.413
11,ACCUCUU,-1.01
12,UUCCAAG,-0.42
13,CCGAACU,-0.839
14,AGAUUAG,0.945
15,UUGAACU,-0.584
16,AAGACAG,0.53
17,AACUGGU,-0.0379
18,GGCGGCG,1.53
19,GGAUUCC,-0.176
20,CCCCUGA,-0.508
21,CGUUUGG,0.00944
22,CUUGUAC,-0.854
23,GAUAAUG,0.807

row,Sequence,RNAcompete 7-mer binding Z-score
1,AACCGGG,1.31
2,CUUGUGC,-0.923
3,UUAGGUG,1.25
4,AGUCCUC,-0.708
5,CACGUAU,-0.413
6,UGAGGCA,1.31
7,UGGUCAC,0.13
8,CCACACG,-0.5
9,UACGUAG,0.603
10,CACCCGC,-0.694
11,ACCCCUA,-0.741
12,ACAUCUG,-0.668
13,UCUAACG,-0.646
14,UUCUCUG,-0.792
15,UUACGGG,1.11
16,CCAACGG,0.275
17,ACAUCUA,-0.679
18,ACAAAAU,-0.424
19,UCACUAG,-0.373
20,AACUGCC,-0.766
21,UCUGGUG,-0.0161
22,CAAGCGC,-0.326
